Reference: PubChem BioAssay AID1508624 (National Center for Advancing Translational Sciences (NCATS), 2021)
The whole screen tested about 48,000 compounds, of which about 120 (0.25%) were called active. About 4% were inconclusive and are not listed. Calls come from the whole dose curve; as a rule, active = well fitted activation curve with a large enough effect; inconclusive = small, poorly fitted or top-dose-only effect, or another doubt; inactive = no such curve, though single readings can be large or run the other way. The list shows a part of the results.

experiment: Primary qHTS for Identification of Small Molecule Activators of Huntingtin-Antisense Promoter Activity; conditions: HEK293 HTT-AS promoter firefly luciferase reporter, 24 h; series mostly up to 57.5 µM; activity change, positive = activation: at the top concentration; note: nearly all actives have a fitted effect of over 55% in size
How it was run: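 HEK293 luciferase promoter-reporter cells (2,500/well) plated 24 h, then compounds added at up to 57.5 uM final for 24 h at 37 °C. Firefly luminescence by Dual-Glo, normalized to vehicle (0%) and zero RLU (-100%).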

Activity change, positive = activation, inactive:
O=C(c1cccc(Cl)c1)N1c2nc(-c3ccco3)nn2C2(CCCCC2)[C@@H]2CCCC[C@@H]21 -13%, COc1ccc(CCNC(=O)CCCCn2c(=O)c3ccccc3n(CC(=O)Nc3c(C)cccc3C)c2=O)cc1OC -9.93%, C#CCn1c(=NC(=O)c2ccc3c(c2)OCCO3)sc2cc(OC)c(OC)cc21 11.3%, COc1cc(OC)cc(N2C(=O)N(Cc3ccc(C(C)(C)C)cc3)c3ccccc3S2(=O)=O)c1 -15.1%, CCOC(=O)c1c(C)[nH]c(C)c1S(=O)(=O)NCC(=O)Nc1cccc(C#N)c1 -13.8%, COc1ccc(S(=O)(=O)N2CCC(C(=O)Nc3ccccc3)CC2)cc1OC -5.77%, COC(=O)c1scc(-c2ccc(C)cc2)c1S(=O)(=O)N1CCN(c2ccccc2)CC1 -13.8%, Cc1nc2ccc(S(=O)(=O)CCC(=O)Nc3ccc(Cl)cc3)cc2s1 -20.5%, Cc1sc2ncn(CC(=O)Nc3ccc(C(C)C)cc3)c(=O)c2c1S(=O)(=O)N1CCN(c2ncccn2)CC1 -24.8%, CC1(C)N=C(SCc2ccccc2Cl)c2ccccc2N1 -1.11% [at 11.5 µM, percent change from vehicle, -100% = no light], Cc1ccc(S(=O)(=O)c2nnn3c2nc(NC(C)C)c2cc(Cl)ccc23)cc1C 0%, Cc1cccc(-c2noc(-c3cccnc3NCc3ccc(Cl)cc3)n2)c1 1.12%, CCCCNC(=O)CSc1nc2n[nH]c(C)c2c(=N)n1-c1cccc(Cl)c1C -38.9%, COc1ccc2c(c1)sc1ncc(C(=O)NCc3ccccc3F)c(=O)n12 -2.12%, COc1ccc(S(=O)(=O)Nc2ccc3oc4c(c3c2)CCCC4)cc1 -37.4%, CCOc1ccccc1CNC(=O)c1ccc2c(c1)N(Cc1ccc(C)cc1)CCS2 -19.7%, CC(=O)c1cccc(NC(=O)CSc2nc(=O)n(Cc3ccco3)c3c2CCC3)c1 -20.8%, Cc1oc(-c2cccc(Cl)c2)nc1CS(=O)(=O)CC(=O)NC(C)CCc1ccccc1 (centres undefined) -19.9%, O=C(CSc1ccc(-c2cccs2)nn1)Nc1ccccc1C(F)(F)F -18.2%, Cc1ccccc1CNC(=O)C(C)N(c1ccccc1)S(C)(=O)=O (centres undefined) -10.1%, Cc1ccc(NC(=O)C2CCCN(C(=O)c3cnn(-c4ccc(F)cc4)c3-n3cccc3)C2)c(Cl)c1 (centres undefined) -9.01%, O=C(NCCc1ccccc1Cl)C1CCN(c2nc3ccccc3nc2C(F)(F)F)CC1 -10.5%, COc1ccc(-n2c(-c3ccco3)nc3c(cnn3-c3ccc(Cl)cc3)c2=O)cc1 -53.2%, CC1(C)O[C@H]2[C@@H](O1)[C@@H](C(=O)Nc1ccccc1C(F)(F)F)O[C@@H]1OC(C)(C)O[C@@H]12 -45.6%
